Results taken from the RNAGym collection of RNA variant scans (doi:10.1093/nar/gkz1192).
Read counts are not given, so values of variants with three or more changes are uncertain.

B1: CPEB3 Ribozyme (parent)
chain: UAACAGGGGGCCACAGCAGAAGCGUUCACGUCGCAGCCCCUGUCAGAUUCUGGUGAAUCUGCGAAUUCUGCUGUAUAUCUC

Variants of: B1
Experiment: self-cleavage, relative activity (ratio to wild type); higher = more cleavage; in vitro, sequencing
Summary of the method: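 Relative activity compares each variant's cleaved/total read fraction with that of the unmutated ribozyme. To get these fractions, barcoded CPEB3 ribozyme libraries from rounds of error-prone PCR were transcribed with T7 RNA polymerase for 5 hours at 37°C and then given 15 min of DNase I treatment before EDTA was added. The RNAs were reverse transcribed with template switching and sequenced on Illumina, and DNA sequencing linked barcodes to variants. A minimum of 5 reads applied, and three batches were averaged.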

| Variant | self-cleavage |
| --- | --- |
| UAACAGGGGGCCACAGCAGAAGCGUUCACGUCGCAGCCCCUGUCAGAUCCUAGUGAAUCCGCGAAUUCUGCUGUAUAUCUC [U49C G52A U60C] | 0.14 |
| UAACAGGGGGCCACAGCAGAAGCGUUCACGUCGCAGCCCCUGUCAGAUCCUGCUGAAUCUGCGUAUUCUGCUGACUAUCUC [U49C G53C A64U U74A A75C] | 0.27 |
| UAACAGGGGGCCACAGCAGAAGCGUUCACGUCGCAGCCCCUGUCAGAUCCUGGUAAAUCCGCGAAUUCUGCUGUAUAUCUC [U49C G55A U60C] | 0.13 |
| UAACAGGGGGCCACAGCAGAAGCGUUCACGUCGCAGCCCCUGUCAGAUCCAGGUGUAUCUGCGAAUUCCGCUGUAUAUCUC [U49C U51A A56U U69C] | 0.22 |
| UAACAGGGGGCCACAGCAGAAGCGUUCACGUCGCAGCCCCUGUCAGAUCCAGGUGAAUGUGCGAAUUCUGCUGUAUAUCGC [U49C U51A C59G U80G] | 0.11 |
| UAACAGGGGGCCACAGCAGAAGCGUUCACGUCGCAGCCCCUGUCAGAUCCAGGCGAAUCUGCGAAUUCUGCUGUAUAUCUC [U49C U51A U54C] | 0.38 |
| UAACAGGGGGCCACAGCAGAAGCGUUCACGUCGCAGCCCCUGUCAGAUCCAGGUGAAACUGCGAAUUCUGCUGUAUAUCUC [U49C U51A U58A] | 0.47 |
| UAACAGGGGGCCACAGCAGAAGCGUUCACGUCGCAGCCCCUGUCAGAUCCAGGUGAAUCCGCGAACUCUGCUGUAUAUCCC [U49C U51A U60C U66C U80C] | 0.22 |
| UAACAGGGGGCCACAGCAGAAGCGUUCACGUCGCAGCCCCUGUCAGAUCCCGGUGAAUCUGCGAAUGCUGCCUUAUACCAC [U49C U51C U67G U72C G73U U78C U80A] | 0.19 |
| UAACAGGGGGCCACAGCAGAAGCGUUCACGUCGCAGCCCCUGUCAGAUCCCGGUGAAUCUGCGAAUUCUGCUGCAUAUCAC [U49C U51C U74C U80A] | 0.38 |
| UAACAGGGGGCCACAGCAGAAGCGUUCACGUCGCAGCCCCUGUCAGAUCCCGGUGAAUCUGCGAAUUCUGCUGUAAAUCUC [U49C U51C U76A] | 0.37 |
| UAACAGGGGGCCACAGCAGAAGCGUUCACGUCGCAGCCCCUGUCAGAUCCCGGUGAAUCUGCGAAUUCUGCUGUAUAUCGC [U49C U51C U80G] | 0.24 |
| UAACAGGGGGCCACAGCAGAAGCGUUCACGUCGCAGCCCCUGUCAGAUCCUGGAGAAUCUUCGAAUUCUGCUGUAUAUCUC [U49C U54A G61U] | 0.18 |
| UAACAGGGGGCCACAGCAGAAGCGUUCACGUCGCAGCCCCUGUCAGAUCCUGGAGAAUCUGCGAAUUCUGCUGUAUAUCCC [U49C U54A U80C] | 0.48 |
| UAACAGGGGGCCACAGCAGAAGCGUUCACGUCGCAGCCCCUGUCAGAUCCUGGCGUAUCUGCGAAUCCUGCUGUAUGUCUC [U49C U54C A56U U67C A77G] | 0.08 |
| UAACAGGGGGCCACAGCAGAAGCGUUCACGUCGCAGCCCCUGUCAGAUCCUGGCGAACCUGCGAAUUCUGCUGCGUAUCUC [U49C U54C U58C U74C A75G] | 0.16 |
| UAACAGGGGGCCACAGCAGAAGCGUUCACGUCGCAGCCCCUGUCAGAUCCUGGCGAAUCCGCGAAUUCUGCUGUAUACCAC [U49C U54C U60C U78C U80A] | 0.05 |

| Variant | self-cleavage |
| --- | --- |
| UAACAGGGGGCCACAGCAGAAGCGUUCACGUCGCAGCCCCUGUCAGAUCCUGGUGAACCUGCGAACUCUGCUGUAUAUCUC [U49C U58C U66C] | 0.07 |
| UAACAGGGGGCCACAGCAGAAGCGUUCACGUCGCAGCCCCUGUCAGAUCCUGGUGAAUCAGCGAUUUCUGCUGUAUAUCUC [U49C U60A A65U] | 0.16 |
| UAACAGGGGGCCACAGCAGAAGCGUUCACGUCGCAGCCCCUGUCAGAUCCUGGUGAAUCAGCGAAUUCUGCUGUAUAACUC [U49C U60A U78A] | 0.17 |
| UAACAGGGGGCCACAGCAGAAGCGUUCACGUCGCAGCCCCUGUCAGAUCCUGGUGAAUCAGCGAAUUCUGCUGUAUACCUC [U49C U60A U78C] | 0.12 |
| UAACAGGGGGCCACAGCAGAAGCGUUCACGUCGCAGCCCCUGUCAGAUCCUGGUGAAUCCGCGAAUUCUGCUGUAUAUCCC [U49C U60C U80C] | 0.11 |
| UAACAGGGGGCCACAGCAGAAGCGUUCACGUCGCAGCCCCUGUCAGAUCCUGGUGAAUCUGCGAAAUCUGCUGUAUAUCCC [U49C U66A U80C] | 0.14 |
| UAACAGGGGGCCACAGCAGAAGCGUUCACGUCGCAGCCCCUGUCAGAUCCUGGUGAAUCUGCGAAUCCUGCGGUAUAUCUC [U49C U67C U72G] | 0.12 |
| UAACAGGGGGCCACAGCAGAAGCGUUCACGUCGCAGCCCCUGUCAGAUCCUGGUGAAUCUGCGAAUCCUGCUGUAUACCUC [U49C U67C U78C] | 0.21 |
| UAACAGGGGGCCACAGCAGAAGCGUUCACGUCGCAGCCCCUGUCAGAUCCUGGUGAAUCUGCGAAUCCUGCUGUAUAUCAC [U49C U67C U80A] | 0.19 |
| UAACAGGGGGCCACAGCAGAAGCGUUCACGUCGCAGCCCCUGUCAGAUGCUGGUGAAUCUGCGAAUUCAGCUGAAUAUCUC [U49G U69A U74A] | 0.3 |
| UAACAGGGGGCCACAGCAGAAGCGUUCACGUCGCAGCCCCUGUCAGAUUAUGGUGAGUCUGCGAAUUCAGCUGUAUACCUC [C50A A57G U69A U78C] | 0.3 |
| UAACAGGGGGCCACAGCAGAAGCGUUCACGUCGCAGCCCCUGUCAGAUUAUGGUGAAUUUGCGAAUUCUGCUGUAUACCUC [C50A C59U U78C] | 0.26 |
| UAACAGGGGGCCACAGCAGAAGCGUUCACGUCGCAGCCCCUGUCAGAUUAUGGUGAAUCUACGAAUUCUGCUGAAUAUCAC [C50A G61A U74A U80A] | 1.04 |
| UAACAGGGGGCCACAGCAGAAGCGUUCACGUCGCAGCCCCUGUCAGAUUUUGGUGGAUCAGCGAAUUCUGCUGUAUAUCCC [C50U A56G U60A U80C] | 0.33 |
| UAACAGGGGGCCACAGCAGAAGCGUUCACGUCGCAGCCCCUGUCAGAUUUUGGUGAUUCUGCGCAUUCUGCUGUAUAUCUC [C50U A57U A64C] | 0.14 |
| UAACAGGGGGCCACAGCAGAAGCGUUCACGUCGCAGCCCCUGUCAGAUUUAGGUGAAUCUGCGAAUUCUGCUGUAUGUCUC [C50U U51A A77G] | 0.82 |
| UAACAGGGGGCCACAGCAGAAGCGUUCACGUCGCAGCCCCUGUCAGAUUUCGGUGAAUCUGCGAAUUCUGCUGUAUGUCUC [C50U U51C A77G] | 1.13 |
